71 compounds from PubChem BioAssay AID1240 (Sanford-Burnham Center for Chemical Genomics, 2008) can be followed below.

Hit rate of the full screen: of about 50,000 compounds, about 800 (1.6%) showed an effect of 50% or more. The list shows a part of the results.

The assay deals with Bcl-2-like protein 10 (Homo sapiens) (UniProt Q9HD36). In words: TR3 peptide-Bcl-B binding displacers, biochemical primary FP assay, phenotype converters (AID 1240).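 Also: 0% = Bcl-B with tracer peptide and DMSO and 100% = tracer peptide lacking Bcl-B.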 The note with it: GST-Bcl-B / FITC-TR3 peptide fluorescence polarization; stronger effect = higher value; compound at 3.75 mg/L. (Polarisation of emitted light reports the rotation of a fluorescent probe.)
Chain of UniProt Q9HD36 (Q9HD36 whole entry, looked up): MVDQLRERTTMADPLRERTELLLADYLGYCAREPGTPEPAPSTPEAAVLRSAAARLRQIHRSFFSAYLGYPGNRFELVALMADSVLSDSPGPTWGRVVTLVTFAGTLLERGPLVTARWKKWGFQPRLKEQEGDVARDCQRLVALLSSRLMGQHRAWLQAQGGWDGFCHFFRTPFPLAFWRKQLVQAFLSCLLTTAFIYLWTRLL
Turning to `O=C(CN(c1cccc([N+](=O)[O-])c1)S(=O)(=O)c1ccccc1)NCCSCc1ccccc1Cl`, the displacement was -12%.
For `Cc1ccc(C(=O)Oc2ccc(C(=S)N3CCOCC3)cc2)cc1` the value was 10.9%.
For `COC(=O)c1ccc(/C=C2\N=C(c3ccc(C(C)(C)C)cc3)OC2=O)cc1` the value was 11.1%; for `Oc1cnc2ccccc2c1CN1CCOCC1`, 10.1%; for `O=C(Nc1ccc(I)cc1Cl)c1ccc([N+](=O)[O-])cc1Cl`, -1.3%.
For `COCCNc1nc(-c2ccc(Cl)cc2)nc2ccccc12` the value was -11.6%.
In the case of `CCOC(=O)c1ccc(NC(=O)Cc2ccc(Cl)cc2)cc1`, the displacement was -8.1%.
For `O=c1[nH]cnc2c1C(c1ccc(Cl)cc1)c1c(nc[nH]c1=O)O2` the value was -1.7%; for `CC1=C(C(=O)OC(C)C)C(c2cccc(Br)c2)NC(=O)N1` (stereo unspecified), 0.4%; for `CCOC(=O)c1c(-c2ccccc2)oc2cc(Br)c(OS(C)(=O)=O)cc12`, 8.6%.
The value for `O=C(COc1ccc2ccccc2c1)N1CCc2ccccc21` was -1.3%.
For `COc1ccc(C2=NC(=Cc3cccc4ccccc34)C(=O)O2)cc1` the value was 108%; for `COc1ccc(OC)c(NC(=S)NC(NC(=O)c2ccc(Br)cc2)C(Cl)(Cl)Cl)c1` (stereo unspecified), -7%; for `Cn1c(/C=C/c2ccc3c(c2)OCO3)nc2ccccc2c1=O`, 1.3%.
Take `CC(C)CN1C(=O)/C(=C/c2cccc([N+](=O)[O-])c2)SC1=S`: the displacement came to 10.8%.
The value for `Cc1cccc(-c2cc(NC(=O)c3ccc(F)cc3)n[nH]2)c1` was 12.6%; that for `CCc1cc(=O)oc2cc(OC(C)=O)ccc12` was 12.3%; that for `CCOc1cc(C(=O)Nc2ccc3c(c2)OCO3)cc(OCC)c1OCC` was -5.5%.
For `COc1cccc(C(=O)Oc2ccc3c(C)cc(=O)oc3c2C(C)=O)c1` the value was -1.9%.
Take `O=C(Nc1ccc(Cl)c(C(F)(F)F)c1)c1cccc(I)c1`: the displacement was found to be 8.8%.
For `Cc1sc(NC(=O)Nc2ccccc2)nc1C12CC3CC(CC(C3)C1)C2` the value was 3%; for `CCSc1nc2c(C)c(O)c(C)cc2[nH]1`, 10.3%.
For `Cc1cccc(N2C(=O)CC(N3CCN(c4ccc(F)cc4)CC3)C2=O)c1` (stereo unspecified) the value was -0.1%; for `C=C(Br)Cn1c(C)nc2ccccc21`, 14.6%.
The value for `Cc1sc2ncnc(N/N=C/c3ccc(Cl)cc3Cl)c2c1C` was 3.8%; that for `O=C(NCCO)C(=O)NC1CCCCC1` was 7.6%.
As to `O=C1S/C(=C/c2ccc(-c3ccc(F)cc3)o2)C(=O)N1c1ccccc1`, the displacement is 12.2%.
For `Cc1c(NC(=O)c2cccs2)cccc1C(=O)O` the value was 0.8%; for `COC(=O)C1=C(C)N(c2cccc(OC)c2)C(=O)/C1=C\c1ccc(O)cc1`, 5.3%; for `CC(=O)c1cccc(NC(=O)/C(=C\c2cccs2)NC(=O)c2ccccc2)c1`, 7%.
For `CCc1c(C)nc(Nc2nc(C)c3ccccc3n2)[nH]c1=O`, the displacement is -10.2%.
The value for `O=C(O)CCCC(=O)N1CCN(C(c2ccccc2)c2ccccc2)CC1` was -5.1%.
The value for `Cc1cc(/C=C2\C(=O)NC(=S)N(c3cccc(Cl)c3Cl)C2=O)c(C)n1C` was 0.8%; that for `Cc1ccc2nsnc2c1NC(=O)COc1ccc(Cl)cc1Cl` was -0.9%.
For `COc1ccc(NC(=O)c2cccc([N+](=O)[O-])c2C)cc1OC` the value was 1.9%; for `COc1ccc(Br)cc1CN1CCN(S(=O)(=O)c2ccccc2)CC1`, 11.2%; for `O=C1C=C(Nc2cccc(O)c2)CC(c2ccco2)C1` (stereo unspecified), 14.1%.
Turning to `Cc1ccc(-c2nc(Nc3ccccc3)s[n+]2CS(=O)(=O)c2ccccc2)cc1`, the displacement was found to be 14%.
For `COc1cc(-c2ccc(NC(=O)c3cccc(F)c3)c(OC)c2)ccc1NC(=O)c1cccc(F)c1`, the displacement is 37%.
The value for `O=C1NC(=O)/C(=C/c2ccc(OC(=O)c3ccccc3I)cc2)S1` was -1%; that for `CCn1c2ccccc2c2ccc(/C=N/NC(=O)c3ccc(O)cc3O)cc21` was -43.4%.
In the case of `CCOc1ccc(N2C(=O)NC(=O)/C(=C\c3ccc(Br)o3)C2=O)cc1`, the displacement is 0.6%.
For `CCn1c2ccccc2c2nnc(-n3nc(C)c(Cc4ccccc4)c3C)nc21` the value was -3.5%.
For `O=C(Nc1ccc(Br)cc1)/C(=C/c1cccc([N+](=O)[O-])c1)NC(=O)c1cccs1` the value was -4.2%; for `N/C(Cc1ccc(Cl)cc1Cl)=N\OC(=O)COc1ccccc1`, 1.1%.
For the compound `CS(=O)(=O)N1CCN(C(=O)COc2ccccc2)CC1`, the displacement came to 13.6%.
For `O=C(N/C(=C/c1ccc(Cl)cc1)c1nc2ccccc2[nH]1)c1ccco1` the value was -4.9%; for `NS(=O)(=O)c1ccc(NC(=O)Cc2cccc3ccccc23)cc1`, 3.2%.
As for `COc1ccc(NC(=O)c2ccco2)cc1`, the displacement amounted to 3.1%.
For `COc1ccc(C(=O)Nc2ccccc2)cc1S(=O)(=O)NC1CCCCC1` the value was -8.2%; for `COc1ccc(CCN2C(=O)CC(C(C)c3ccccc3)C2=O)cc1OC` (stereo unspecified), 13.1%.
For `Cc1nc2c(=O)[nH]c3ccccc3c2o1` the value was -5%; for `CCN(CC)C(=S)SCC(=O)Nc1cc(C)ccc1C`, 11.8%; for `COc1ccc(N(CC(=O)N2CCCC2)S(=O)(=O)c2ccccc2[N+](=O)[O-])c(OC)c1`, 3.9%.
For `O=C(O)CSc1nc2ccccc2c(=O)[nH]1` the value was 2.9%; for `Cc1cccc(NC(=O)CSc2ncn[nH]2)c1`, 9.7%.
Consider `O=C(Nc1ccccc1-c1ccccc1)c1cccc(I)c1`, for which the displacement is 7.3%.
`C=CCc1ccccc1OCCOc1cccc(/C=C2/SC(=S)N(C)C2=O)c1`: the displacement stood at 3.5%.
For `O=C(NN1C(=O)/C(=C/c2ccc(F)cc2)SC1=S)c1ccncc1`, the displacement was -33.7%.
Regarding `Cc1ccc(OCC(=O)Nc2ccc(C)c(Cl)c2)c(C)c1`, the displacement was 3.2%.
For `COC(=O)c1ccc(NC(=O)C2(C)CC3c4ccccc4C2c2ccccc23)cc1` (stereo unspecified) the value was 6.2%; for `CCOc1ccc(N2C(=O)S/C(=C\C=C\c3ccccc3)C2=O)cc1`, 2.6%; for `CC1=CCC2C(=O)N(c3cccc([N+](=O)[O-])c3)C(=O)C2C1` (stereo unspecified), 25.7%.
As for `C/C(=N/OCO/N=C(/C)c1ccc(F)cc1)c1ccc(F)cc1`, the displacement came out at 15.9%.
Turning to `CCOC(=O)c1ccccc1NC(=O)c1cccc(N(C)C)c1`, the displacement worked out at 2.6%.
The value for `CCCCOc1ccc(OCCNS(=O)(=O)N(C)C)cc1` was -14.3%; that for `O=C(CSc1nc2ccc([N+](=O)[O-])cc2s1)NCCc1ccccc1` was 7.9%; that for `Cc1ccnc(NS(=O)(=O)c2ccccc2)c1` was -12.2%.
In the case of `CCOc1cc(C2NC(=O)N(C)C(C)=C2C(=O)OCCc2ccccc2)ccc1O` (stereo unspecified), the displacement came out at 11.8%.
The value for `O=C(CCNc1cccc(F)c1)c1cccc([N+](=O)[O-])c1` was -13%.
For `COc1cc(OC)cc(C(=O)Nc2cc(Cl)ccc2C)c1` the value was -9%.
